Data as given in the supplement of paper PMC5499739.
Over roughly 16,000 sequences, “Z-score” has its median near -0.37; the highest 2% begin near 3.2. The list shows a part of the results.

System: RBM10 RRM1-ZnF (GST-tagged construct)
Assay: RNAcompete 7-mer binding Z-score; higher = stronger binding preference
In short: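 A one-sided Z-score for enrichment, taken across the probes containing each heptamer motif, was assigned to every such motif. The RNA came from a designed pool of 241 399 sequences up to 41 nt (1.5 nmol), bound by 20 pmol of GST-tagged RBM10 constructs in 1 ml Hepes pH 7.8 buffer with glutathione Sepharose beads for 30 min at 4°C. Four 2-min washes at 4°C preceded identification of bound RNA by microarray hybridisation.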

Sequence | RNAcompete 7-mer binding Z-score
GCCGAGU | -0.516
GCCAAGG | 0.797
UUUAGGA | 0.326
GUGAUCG | 0.365
CGUAGCG | -0.00571
UGCCUUG | -0.73
UGCGGGC | 1.13
AACGCGA | -0.37
CGAAUGA | -0.314
GUUAUUC | -0.513
GUAAAAC | 0.137
GCAGGAA | 1.77
UGAGGUG | 2.83
AUCAAUG | -0.246
GGCGCGG | 1.8
ACCUAUA | -0.782
GCGUUUC | -0.396
UUGCUAC | -0.769
CCAGAAU | -0.539
UUAGUCG | -0.311
GUCCUGU | -0.428
AGACCCA | -0.935
CUCAUGC | -0.876
CAACCCU | -0.831
CUACUUU | -0.902

Sequence | RNAcompete 7-mer binding Z-score
UGCUCCC | -0.457
CCCGUAA | -0.685
CCGGUUG | 0.335
CCGCCCG | -0.386
CUUUUCU | -0.886
UAUACCC | -0.743
AGUCAAC | -0.262
ACGCUGU | -0.558
UGGGACG | 2.03
CAAAAUC | -0.785
GACUUGU | -0.62
AGCCCUG | -0.617
GGGCUCA | 0.485
UCUUUAC | -0.795
UUGACGA | -0.324
GGUACCC | 0.0203
UCGAUAC | -0.457
AGCCUAA | -0.759
UAGUCCG | -0.383
AUUGAGU | 0.235
CGCAAAC | -0.539
CCGCAGU | -0.513
AGUGAAA | 0.8
UAUAUCU | -0.441
CUCCAAC | -0.548

Sequence | RNAcompete 7-mer binding Z-score
CCGGUUU | -0.412
AAUCGUA | -0.448
UACCAGC | -0.49
GAGCAGU | 0.215
UAGUUAC | -0.389
GAGGAGA | 1.69
AGUUUUG | -0.0544
GAGUAGG | 3.18
GCUAGCG | 0.0138
CGGAUUC | -0.305
UGGUGAG | 2.98
AGCUAGA | 0.0235
AAGUAUC | -0.688
UGCGAGG | 1.97
GGGUCUG | 1.14
UAAAUAG | -0.0674
UACUAGA | -0.363
CCCAGGC | -0.259
CACCGCC | -0.529
UGAAUUG | 0.329
CUCCCAA | -0.646
UUUCGUG | -0.366
UAGGACU | 0.313
UAUUAAC | -0.626
CCGACGC | -0.477

Sequence | RNAcompete 7-mer binding Z-score
ACAACUG | -0.451
ACCCCUU | -0.772
AAAUCGC | -0.701
CGGACAU | 0.0268
GUCUAGG | 0.53
CGAGCCC | -0.665
GAACCUA | -0.587
GGUAGCC | 0.784
CAACCGU | -0.694
GCGUGCC | -0.353
CCUUGCC | -0.763
AUGGUGA | 2.6
UUGGACA | 0.504
CCCCACC | -0.24
GGUGCGG | 2.92
UAAUCGA | -0.201
GUGGGAU | 3.68
CGGCGAU | -0.035
GCCUAUC | -0.873
GAUCUUU | -0.828
AGAACCU | -0.958
ACGAGGU | 0.959
AGUGUGC | 0.0333
AGACUUG | -0.402
AAAUGGG | 4.08

Sequence | RNAcompete 7-mer binding Z-score
UCGCUGC | -0.617
AGGUAUC | -0.0544
ACCUAGU | -0.506
UGGAGAG | 2.19
ACACCUG | -0.698
CAAUACC | -0.795
GGCUCCG | -0.314
CACACUG | -0.314
CGUACCG | -0.49
GGUGACA | 2.03
CCCACUA | -0.733
AGGUAAC | 0.852
CAUGUAU | -0.509
CCGGAAC | -0.49
ACAACCU | -0.785
AUGUAUG | 0.264
UAAUUCU | -0.73
AGAAGUG | 1.23
GCAUUUC | -0.86
AGAUCUC | -0.967
GAAGAAA | 0.91
ACCGGGC | -0.00571
CUUUUAU | -0.919
AGGCCAC | -0.591
GGGCGGC | 1.85

Sequence | RNAcompete 7-mer binding Z-score
ACACGCU | -0.552
CUAUUCU | -0.863
UACCGGC | -0.743
AAGGUGA | 3.66
CUGUAAA | -0.694
UGGCUUC | -0.344
AAAUCUA | -0.61
CGUAUUA | -0.526
UUUCAAA | -0.857
AGUCCGU | -0.668
GUAACGC | -0.0285
AUCGUUG | -0.503
AGGUACC | -0.175
AAUGCGG | 1.05
CUAGCAA | -0.617
UAAGCUU | -0.62
CAACGGC | -0.288
ACUAUGA | -0.412
CUUAAUU | -0.828
ACCGUUU | -0.941
AAAGCGA | 0.738
GGUAGCA | 1.52
AACUUAG | -0.376
UUGAUAA | -0.321
GGUUCAG | 0.547

Sequence | RNAcompete 7-mer binding Z-score
GAGUUGA | 0.878
UUAGUUU | -0.321
CGUGCGC | -0.103
UAGGCUA | 0.186
CACAUGG | 0.774
AAACUUA | -0.707
GUCCCGU | -0.321
AAUAGGU | 1.37
AUCUCCG | -0.795
UACAAGA | -0.295
GCGAUUC | -0.591
UGUCACU | -0.552
CUACGCG | -0.402
CUCAUAU | -0.802
GCUCAAU | -0.519
AUGCUCC | -0.685
AGAGCGG | 1.43
AGGGGAU | 3.64
GAUAGCG | 0.888
GAAUCUG | -0.652
UCGGCGG | 0.378
AAGUCGA | -0.188
CAGGCAU | 0.209
CCAGCGU | -0.578
UAUAAGC | -0.324

Sequence | RNAcompete 7-mer binding Z-score
GGACCCA | -0.194
CUGUCAC | -0.815
CAUAACC | -0.779
GAUAUGA | 0.41
ACAAGAG | 0.456
GUUCGCC | -0.422
UUAGGUA | 0.972
AGGGCCG | 0.407
UACCGAC | -0.737
ACGGACG | 0.927
UACGAAU | -0.35
AAAAGGU | 2.33
CUAUACC | -0.834
AACGUUG | -0.106
AGAAUAC | -0.438
UGCAACA | -0.425
GAUCAAC | -0.474
GGCUGUA | 0.212
UGCACAC | -0.22
UGUAAGA | 0.4
CUAUUGU | -0.685
CCGUUAC | -0.808
ACAAACA | -0.568
UCGGGUA | 1.4
UCUAGAG | -0.428

Sequence | RNAcompete 7-mer binding Z-score
CGGUCAA | -0.373
UAUAAAU | -0.431
AAGCCAG | -0.37
CUAACAG | -0.35
CAAGCAA | -0.422
UAUACAC | -0.655
CUGAGAC | -0.457
GCCUCAA | -0.759
CUGAGCC | -0.675
GUGUUGG | 2.15
UCGAGAU | -0.35
GGCCCUC | -0.607
GAGAGGA | 2.21
CCUAGUU | -0.724
GAUCCCC | -0.526
CUUGUAG | -0.487
UCCAGCA | -0.487
UAUAAUU | -0.399
UAGGUCU | 0.179
UGACGCU | -0.587
GUGUGCG | 1.43
AUGUCUC | -0.558
UGUCACC | -0.724
UAACAAC | -0.535
ACCCACC | -0.383

Sequence | RNAcompete 7-mer binding Z-score
AAAAAUC | -0.626
UUCGGAU | -0.347
GUAGUUG | 0.846
CCCCUCA | -0.581
ACGAUAG | 0.316
GACUAAG | 0.183
UAAGCAA | -0.214
ACACUCG | -0.324
AUCACAA | -0.428
CGGAAGA | 0.923
GGUCGGA | 1.47
GGGAAUU | 2.4
CUGGGAC | 1.16
CAGUUUG | -0.272
CACAGAG | 0.095
GUUCCAG | -0.23
AAUAAUU | -0.688
GUGCUAC | -0.0739
UCAAGGA | 0.891
CCUAUUC | -0.928
CCCCGUC | -0.34
CUGGCUU | -0.558
CUAGUCA | -0.461
GAGAAAC | 0.166
AUCACCG | -0.685

Sequence | RNAcompete 7-mer binding Z-score
UUCCUCA | -0.808
CGUGCGA | -0.301
GCCAGCA | -0.392
AGGUUCA | -0.0285
CAGCACA | -0.659
GGGGUCA | 2.86
AUAAAGU | -0.155
CGUGUUU | -0.435
GUAUGGU | 2.22
CAGACCC | -0.568
GAGAAUC | 0.0593
AAUGGUG | 2.79
CGCGAGA | -0.0285
UACUUAG | -0.396
AUAAUCG | -0.435
AGAUGCA | -0.0837
AGAUCCU | -0.961
GAUCAUA | -0.441
CUACGCA | -0.565
GCGCAUC | -0.324
GAGGUCA | 0.508
UUAUGAA | -0.311
GCACUCA | -0.522
GAGGGCU | 1.3
CUUAUCC | -0.876

Sequence | RNAcompete 7-mer binding Z-score
GAUCACC | -0.587
AGGCUCC | -0.555
AUAGGGC | 1.72
GGACUCU | -0.431
UAAGUCA | -0.223
CACGCGG | 0.391
CUCAUAA | -0.808
CCGGAAG | 0.459
GCUGAUC | -0.318
GUCAUUU | -0.61
UGACGAC | -0.298
AAAUCGA | -0.155
CCAGUCU | -0.694
GGUUCAC | 0.0333
UUGGGAG | 2.68
ACCCCCG | -0.197
AUGUAAA | 0.043
GCGGAGG | 3.17
UUAGUAA | -0.373
UGGGUUC | 1.14
CGAGAGU | -0.103
GUCCUUC | -0.701
GCAGGAC | 0.979
ACAGUGA | 0.202
AUCCUCU | -0.711

Sequence | RNAcompete 7-mer binding Z-score
CAGUCAA | -0.522
CGCAAAU | -0.636
GGUGACU | 1.14
UGGUUGA | 2.02
CGGUGUG | 1.72
UCCUUCG | -0.854
AACUUAC | -0.763
UGUCUCU | -0.649
UAAAAUG | 0.0495
GAAAGAA | 0.716
GCUUUGC | -0.798
ACUAGGU | 0.439
CUUGGAU | -0.168
UAGGGUG | 4.81
CAGGACA | 0.764
AGGCAGC | -0.0772
GAGAUUU | -0.301
GCCAUCG | -0.613
AUGCCCC | -0.639
GUGGAGG | 3.91
UCUACUC | -0.808
AGCAUGA | -0.119
GAAGCCA | -0.253
UGAUCUC | -0.733
ACUCCGC | -0.545

Sequence | RNAcompete 7-mer binding Z-score
AGUAUCU | -0.707
UGAUCUG | -0.438
GCCCAUU | -0.925
UAACUGC | -0.568
CCGGCGA | -0.145
GGCUUCG | -0.0544
CGGUAUC | -0.136
UUCUUGA | -0.886
UGGUCUC | -0.295
GGAGGGG | 4.57
CCGUUCG | -0.649
AUCCGUU | -0.795
CUACGUC | -0.535
UAUAAAC | -0.493
ACGAUCU | -0.714
CGAUAUU | -0.613
UACUGGG | 1.12
UACUUGG | 0.0105
UCUAAGG | -0.00896
CGAGGAA | 1.43
GUUGUUG | 0.274
CAAUUGG | 0.962
CUAAGGG | 1.36
CCCCGAC | -0.0772
AGGUGCA | 1.45

Sequence | RNAcompete 7-mer binding Z-score
GAGUCAA | 0.017
ACCGUUC | -0.948
UACGGGC | 1.18
UGAGGCG | 1.15
AUAACAU | -0.305
GAUGGAA | 3.36
CGUGGGA | 2.33
CAGUGUC | -0.594
AUAUGCC | -0.763
UGCGUCC | -0.542
UCUGCAA | -0.844
UGGAUCU | 0.0138
AGACAUU | -0.617
GGGUAUG | 4.08
AGACACC | -0.889
UAGCCCU | -0.811
UAGCAUG | 0.231
